Results as given in article PMC4242493.
The list shows a part of the results. The list includes weakly bound sequences.

What follows are sequences tested against MaxL homodimer (UniProt P61244) (assay: universal protein-binding microarray (PBM)). Details: PBS-based mixture, 10 nM His-tagged protein dimer, 2% milk, 200 ng/uL BSA, 50 ng/uL salmon testes DNA, 0.02% TX-100; detection with Alexa 488 anti-His …; high values mean tight binding; most listed sequences are background and not binding sites; double strand, one strand shown.
Chain of UniProt P61244 (P61244 whole entry): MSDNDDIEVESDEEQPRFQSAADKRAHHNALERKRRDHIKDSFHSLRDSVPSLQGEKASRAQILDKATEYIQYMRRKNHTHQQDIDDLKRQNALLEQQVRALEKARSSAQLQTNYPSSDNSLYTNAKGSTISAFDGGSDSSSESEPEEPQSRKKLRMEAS

Sequence	binding signal (normalized occupancy)
AGCCGTAA	0.0698
AATCTGCT	0.072
CCCCTGTA	0.0798
ACTTGGCA	0.0766
TCATAGGA	0.0813
ATTTCATA	0.0793
ACGGCCAG	0.0716
AAAGCCAT	0.0766
CCAGGGGG	0.0726
GATCTGCA	0.0738
ACGATTGC	0.0766
CGGAAGTA	0.0707
CAGATCCG	0.0687
AAAGATCC	0.0755
CGTTGGGC	0.0777
ACAACGAA	0.0723
AAGTCACG	0.0946
GCTCTACA	0.0739
TTCACAAA	0.072
CTCTGTAC	0.0743
CCTCAACA	0.0712
CTTATCGA	0.074
AAGCATAG	0.0734
CTGGAACC	0.0728
ACTACCCG	0.0715

Sequence	binding signal (normalized occupancy)
CCGGCGCG	0.07
GGCCTGAA	0.0704
GTGCGTCA	0.0849
CGGCAGAA	0.0694
AACTATAA	0.0826
ATGGTTAC	0.0806
ACGCATAC	0.0842
AATCCCGA	0.0726
AAATGCGC	0.0749
GCCAAGCA	0.0719
ATTTCCTA	0.0796
TAGTTCCA	0.0748
AAAGAGGT	0.0678
AAAGCATA	0.0783
GCGTTTAC	0.0751
ATCATCAC	0.0854
AGCACGAG	0.0964
CTAAGATC	0.0789
CCCGCCGC	0.0702
CCGTGCCG	0.0753
AACAGAAA	0.0736
ACATGCCG	0.103
GCTTGCAC	0.0699
CCTTTAGC	0.0691
GAATCCTC	0.0757

Sequence	binding signal (normalized occupancy)
AAGCGTAA	0.0698
GACCATGC	0.109
AAGTTCCA	0.0736
AATCAAAC	0.0782
AGTACCGA	0.0717
TGCTGACA	0.0838
AAATAATA	0.0784
AGCGGAAA	0.0723
AATGCGGC	0.0814
GATCAGGC	0.0778
AAGCCGAA	0.0699
CGACTGTC	0.0718
AACCCCCT	0.0759
ATCCAGCC	0.0742
ATCTCGTG	0.0991
ATCCTAGG	0.0715
AGAGTATC	0.0827
CTTGATGA	0.0755
CCCCGGAG	0.068
CTCATATA	0.087
GTAAGCTA	0.0744
GACCCGGC	0.0707
TCTCGGAA	0.0691
AATGGAAT	0.0715
AGCATCAC	0.0771

Sequence	binding signal (normalized occupancy)
ACCCGCAG	0.0663
GAACCACC	0.077
CCCCCTAC	0.0773
CGTAACGA	0.0718
AGTGTGGA	0.0843
CTCCAGCC	0.0701
GCTGTGCC	0.0741
TCCATACA	0.0868
ACGAAAGC	0.0763
GGTAATTA	0.0776
CGTTCGCA	0.0739
AGCCGTAG	0.0716
TCTTCAAA	0.0703
AGCGATAG	0.0742
CTTCGCAA	0.0722
GTCTCCAA	0.0767
CCCCGAAC	0.0734
AGTGCCAA	0.0718
AAATTGAT	0.0763
TCCGCGGA	0.0687
ATGGCCGC	0.0772
GAAGGCCC	0.0695
AAACCCAA	0.0746
AAGCTCAG	0.067
AAGACTCC	0.0677

Sequence	binding signal (normalized occupancy)
AGTTGGGG	0.0748
TACTCGGA	0.0718
ACACTGTG	0.0758
ACCACCGT	0.0757
CTCGTAAC	0.0752
CATGGTGA	0.094
GATATTAC	0.0774
CGCGCGAC	0.0761
TACCCCAA	0.0766
ATCATGGG	0.0858
CGTGAGTC	0.0749
AAAGAGAT	0.0732
TCAGGGCA	0.0701
AATGCGAG	0.0746
AGGTATTA	0.0767
ACTCGCGA	0.077
AAATTTTA	0.0696
AATTCGCC	0.0696
ATCCGACA	0.0825
AGCAAGAT	0.0771
AAGCAGCG	0.0796
AAAAATAT	0.0782
ATGTCCGA	0.0845
ATCTAGTC	0.0749
ACGAGGCA	0.0852

Sequence	binding signal (normalized occupancy)
CGGTCCAA	0.0678
AATCGCTC	0.0703
AATGCCGT	0.0803
AGTTAACC	0.0794
AAGGCGAG	0.0697
GATAAAGA	0.0781
CCTTATAC	0.0794
AGTTCGCG	0.0727
AACTTCGG	0.0719
CACTGTCA	0.0794
CCTATCTA	0.0779
CGTCTTTA	0.0718
CCCTAAGG	0.0735
CGAGATAG	0.0734
CACCGCTC	0.0735
AATCGCAG	0.0687
AATCGGAT	0.0725
GTCATCAC	0.0823
CCCCCCGG	0.0663
AGGACCTA	0.0709
CATGCCAC	0.0989
GGAACTAC	0.0712
GAAGGTAC	0.0718
CCTTCACA	0.0875
AGAATAGA	0.0729

Sequence	binding signal (normalized occupancy)
GCGATGCC	0.0693
ATTGGCAA	0.0805
ACTAGAGT	0.0743
ACACTACG	0.0754
ACCCCTAA	0.0769
AGCCCTAA	0.0665
GCTTGGCA	0.0766
ATTACGCA	0.0804
CTATTGGC	0.0773
AAGTGATC	0.0794
CCAGGCAA	0.0705
CTTAGCAC	0.0791
CGGTGGGA	0.0736
ACTCAAGA	0.0686
ATAACAGA	0.0812
ACGTTATA	0.0842
AGTTAGGG	0.0757
GGTTAGAA	0.0724
CGGCGTGA	0.0839
AGAACCTG	0.0754
CAAGCTAA	0.0734
AGCACCGA	0.07
